# Among all 48,000 compounds or so, about 550 (1.1%) were called active. Roughly 4% stayed inconclusive and do not appear here. Cut-off read from the data, not from the text of the source: active = potency below about 15 µM; inconclusive = mostly about 16 µM to 33 µM; inactive = weaker than that. This is one part of the list.
# Biological target: Lysosomal acid glucosylceramidase (Homo sapiens) (UniProt P04062)
# Assay: Glucocerebrosidase;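 note: the screen sought inhibitors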
# Settings: purified enzyme, resorufin glucoside fluorescence (screen aimed at inhibitors), 20 min
# Method in brief: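 Wild-type enzyme at 0.2 nM final in 50mM citric acid/KH2PO4, 10mM sodium taurocholate, 0.01% tween-20, pH 5.9, with resorufin beta-D-glucopyranoside at 30 uM final. Compounds titrated, 20 min at RT, red fluorescence read; AC50 from titration.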
# Potency is the fitted concentration of half-maximal effect.
# Chain of UniProt P04062 (P04062 whole entry, looked up): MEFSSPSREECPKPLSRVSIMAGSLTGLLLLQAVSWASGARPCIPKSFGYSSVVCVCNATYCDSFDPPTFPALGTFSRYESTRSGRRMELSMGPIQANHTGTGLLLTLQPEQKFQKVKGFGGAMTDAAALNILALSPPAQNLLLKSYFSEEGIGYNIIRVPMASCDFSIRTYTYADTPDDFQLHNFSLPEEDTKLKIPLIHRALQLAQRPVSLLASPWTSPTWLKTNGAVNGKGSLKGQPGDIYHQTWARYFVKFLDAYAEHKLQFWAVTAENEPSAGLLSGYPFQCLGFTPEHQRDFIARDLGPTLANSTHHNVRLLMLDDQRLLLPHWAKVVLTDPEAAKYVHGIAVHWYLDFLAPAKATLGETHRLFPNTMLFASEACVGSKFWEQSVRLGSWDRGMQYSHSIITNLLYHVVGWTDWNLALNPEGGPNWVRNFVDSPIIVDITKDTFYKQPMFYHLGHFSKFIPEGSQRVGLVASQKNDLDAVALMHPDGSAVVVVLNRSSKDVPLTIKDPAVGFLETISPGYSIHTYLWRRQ
row,Compound,Potency
1,Cc1ccc2cc(CN(CCN3CCOCC3)Cc3nnnn3Cc3ccco3)c(=O)[nH]c2c1C,inactive: > 76.9 µM
2,COc1ccc(-n2c(NC(=O)c3ccco3)c(C#N)c3nc4ccccc4nc32)cc1,inactive: > 76.9 µM
3,COc1ccc2c(c1)CCc1c(C(=O)Nc3ccn(Cc4ccc(C)cc4)n3)noc1-2,inactive: > 76.9 µM
4,COC(=O)c1ccc(NS(=O)(=O)N(C)C)cc1,inactive: > 76.9 µM
5,CCOC(=O)c1sc(Nc2nc3c(OC)cccc3s2)nc1C,inactive
6,CCCc1nc2ccccc2c(C(=O)OCc2nnc(-c3cc(OC)c(OC)c(OC)c3)o2)c1CC,inactive: > 76.9 µM
7,COc1ccc(NS(=O)(=O)c2ccc(N)c(C(=O)O)c2)cc1,inactive: > 76.9 µM
8,Cc1ccc(-c2ccc(=O)n(CC(=O)Nc3cccc(C(=O)N4CCN(C)CC4)c3)n2)cc1,inactive: > 76.9 µM
9,COCCCn1c(SCC(=O)NC2CCCC2)nnc1-c1ccco1,inactive: > 76.9 µM
10,Cc1ccc(-n2nnnc2SCC(=O)c2c(N)n(CC(C)C)c(=O)n(C)c2=O)cc1,inactive: > 76.9 µM
11,Cn1c(C(C#N)C(=O)Cc2cccc3ccccc23)nc2ccccc21 (centres undefined),inactive: > 76.9 µM
12,COc1ccccc1Nc1ncc(C(=O)N2CCC(C(N)=O)CC2)c2ccccc12,inactive: > 76.9 µM
13,Cc1nnn(C23CC4CC(CC(C4)C2)C3)n1,inactive: > 76.9 µM
14,Cc1cc(N2C(=O)C3C4C=CC(C4)C3C2=O)no1 (centres undefined),inactive: > 76.9 µM
15,O=C(COC(=O)c1cc(S(=O)(=O)N2CCCCC2)ccc1N1CCOCC1)NC1CCCCC1,inactive: > 76.9 µM
16,Cc1ccc2cc(CN(CC3CCCO3)S(=O)(=O)c3c(C)ccc4nsnc34)c(=O)[nH]c2c1 (centres undefined),inactive: > 76.9 µM
17,COc1ccccc1-c1c(C)nn2c(C)c(C(C)=O)cnc12,inactive: > 76.9 µM
18,CC(=O)NC(CCS(C)(=O)=O)C(=O)Nc1cccc(C(C)=O)c1 (centres undefined),inactive: > 76.9 µM
19,CSc1nsc(SC)c1NC(=O)Nc1ccccn1,inactive: > 76.9 µM
20,COc1ccc(-c2cn3cc(Cl)ccc3n2)cc1OC,active: 2.83 µM
21,O=C(OCCN=C1NS(=O)(=O)c2ccccc21)c1cccnc1,inactive: > 76.9 µM
22,COC(=O)c1c(-c2cccc(C)c2)csc1N,inactive: > 76.9 µM
23,CCCN(CCC)S(=O)(=O)c1ccc(C(=O)Nc2nnc(-c3cc(OC)cc(OC)c3)o2)cc1,inactive: > 76.9 µM
24,CN(C)c1nc(NCc2ccccc2)nc(Oc2ccc(=O)[nH]n2)n1,inactive: > 76.9 µM

# — PubChem BioAssay AID360 (National Center for Advancing Translational Sciences (NCATS), 2006)
